Laboratory results from the BET-seq Pho4 binding data (Le et al. 2018).
This is one part of the list. The energies were worked out here from pooled read counts, against the library average; single values are noisy.

biological target: T1, Pho4 (S. cerevisiae) (UniProt P07270); assay: relative binding free energy (BET-seq); higher = weaker binding; conditions: reference: library average
T1 sequence: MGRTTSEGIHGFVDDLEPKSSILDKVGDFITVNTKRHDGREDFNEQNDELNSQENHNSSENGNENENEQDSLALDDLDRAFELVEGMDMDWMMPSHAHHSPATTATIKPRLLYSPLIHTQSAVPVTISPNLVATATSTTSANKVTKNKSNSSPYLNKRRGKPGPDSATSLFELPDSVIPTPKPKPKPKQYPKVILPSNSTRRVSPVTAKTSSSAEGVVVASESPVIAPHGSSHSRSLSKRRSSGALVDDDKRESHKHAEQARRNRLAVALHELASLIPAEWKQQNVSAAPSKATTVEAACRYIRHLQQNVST

Sequence	relative binding free energy [kcal/mol]
CTGTACACGTGGTCGT	0.06
ATGGTCACGTGTATTA	0.07
TTGTACACGTGATTGA	0.14
TTGTTCACGTGTTGAA	0.28
TAATACACGTGTTTGG	-0.06
TGCAACACGTGGTATT	-0.05
TCAAGCACGTGGGAGT	-0.21
GGTAGCACGTGGTGAC	-0.09
AGGGACACGTGGGGAG	-0.11
ATGAGCACGTGTGGAA	-0.07
GGATTCACGTGTAAGA	0.4
GAGTACACGTGTGGTG	0.13
TGATTCACGTGGTCTA	0.08
AATGGCACGTGTTGGC	-0.12
GGAGGCACGTGTGGAC	-0.15
ATGTGCACGTGGGGGC	-0.23
GTGTCCACGTGTCTGG	0.19
TTTATCACGTGATGTC	0.15
TGGGTCACGTGGGACG	-0.01
TGTTGCACGTGATTAA	0.13

Sequence	relative binding free energy [kcal/mol]
TTCCGCACGTGTGGTT	0.1
GGTGACACGTGTTAGT	0.1
AGAAGCACGTGAGATG	0.28
GCGCTCACGTGGGTGG	0.12
TGTAGCACGTGGTAGC	-0.18
TTGTTCACGTGGAGAT	0.22
TGTCGCACGTGTTAGG	-0.01
TATTTCACGTGCAGTT	0.31
ATTTGCACGTGCGGAG	0.01
GTTAACACGTGGTAGC	0.14
AGGCACACGTGGGGCG	-0.12
GAAGGCACGTGGTGGA	-0.06
GTAATCACGTGTGGCG	0.17
TGTGACACGTGTGAGC	0.05
GGGTGCACGTGGTCAA	-0.17
TAATACACGTGTGGCT	0.17
TAAGGCACGTGAGAGT	0.05
GGGCCCACGTGTAGGG	0.07
AGTGTCACGTGTCGGG	0.13
AGTTGCACGTGGCGAT	-0.11

Sequence	relative binding free energy [kcal/mol]
TTGTGCACGTGGTCTG	-0.03
GGTGGCACGTGCTGAA	-0.09
GTGGACACGTGGGGGG	-0.09
TAATGCACGTGATATT	0.02
GCCGTCACGTGTTGGG	0.17
TCATTCACGTGGGGGT	0.11
TGAGACACGTGATGGT	0
TGCTTCACGTGTTATC	0.22
AAGTACACGTGGTATT	-0.14
GAAGGCACGTGAGGGC	0.14
TGTTCCACGTGATGAT	0.24
TTGGACACGTGCATGT	-0.03
TAGTTCACGTGCGTTC	0.21
TTACGCACGTGTTTTT	-0.05
GGGGGCACGTGGCTAA	-0.28
TGTAGCACGTGCGTGC	-0.29
AAATTCACGTGTGGGC	0.24
ATTGACACGTGGTTGG	0
